In the supplement of paper PMC4604168 (melanoma cell lines):
Some of the results follow. Many values rest on one well or one pass, so single values are uncertain.

How the values were obtained:
Test in all cases: cell count relative to DMSO control; melanoma cells; higher = more viable cells
Settings in all cases: library dose: low library concentration; 72 h
MZ2-MEL = system: MZ2-MEL
MeWo = system: MeWo
RPMI7951 = system: RPMI7951
RVH-421 = system: RVH-421
SkMel28 = system: SkMel28
SkMel2 = system: SkMel2
SkMel30 = system: SkMel30
SkMel5 = system: SkMel5
UACC257 = system: UACC257
UACC62 = system: UACC62
WM115 = system: WM115
WM1716 = system: WM1716
WM1745 = system: WM1745
WM3526 = system: WM3526
WM3619 = system: WM3619
WM451Lu = system: WM451Lu
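Further: cell number obtained by counting DAPI-stained nuclei in high-throughput microscope images with image analysis software, screen run in 1,536-well plates.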

SMILES	cell count (MZ2-MEL)	cell count (MeWo)	cell count (RPMI7951)	cell count (RVH-421)	cell count (SkMel28)	cell count (SkMel2)	cell count (SkMel30)	cell count (SkMel5)	cell count (UACC257)	cell count (UACC62)	cell count (WM115)	cell count (WM1716)	cell count (WM1745)	cell count (WM3526)	cell count (WM3619)	cell count (WM451Lu)
O=C(Nc1cc(C(F)(F)F)cc(C(F)(F)F)c1)c1cc(Cl)ccc1O + CO[C@@H]1[C@H](N(C)C(=O)c2ccccc2)C[C@H]2O[C@]1(C)n1c3ccccc3c3c4c(c5c6ccccc6n2c5c31)C(=O)NC4 [Midostaurin] (first compound 0.016 µM, partner dose 0.08 µM)	92.4%	85.7%	85.9%	96.2%	85.9%	83.3%	109%	77.3%	71.7%	80.7%	67.6%	84%	77.8%	81.6%	102%	89.5%
O=C(O)c1ccc2c(c1)nc(Nc1cccc(Cl)c1)c1ccncc12 + COc1ccc(-c2ccc3c(N4CCOCC4)nc(N4C[C@@H](C)O[C@@H](C)C4)nc3n2)cc1CO [KU0063794] (first compound 0.4 µM, partner dose 0.02 µM)	86.7%	92.6%	94.7%	99.9%	97.3%	95.3%	89%	122%	73%	108%	112%	92.7%	89.4%	91.5%	111%	88%
O=C(Nc1cc(C(F)(F)F)cc(C(F)(F)F)c1)c1cc(Cl)ccc1O + NCC(=O)Nc1ccc(-n2nc(C(F)(F)F)cc2-c2ccc3c(ccc4ccccc43)c2)cc1 [OSU03012] (first compound 0.016 µM, partner dose 1 µM)	81.6%	57.3%	100%	85.8%	72.6%	58.9%	50.5%	89.9%	86.6%	78.1%	93.9%	95.9%	115%	49.2%	107%	56.3%
Cc1cc(N2CCOCC2)cc2[nH]c(-c3c(NC[C@@H](O)c4cccc(Cl)c4)cc[nH]c3=O)nc12 + C[C@@H]1CCN(C(=O)CC#N)C[C@@H]1N(C)c1ncnc2[nH]ccc12 [CP690550] (first compound 0.2 µM, partner dose 1 µM)	92%	80.5%	104%	87.4%	107%	87.9%	92.4%	93.8%	84.9%	107%	110%	90.9%	68.5%	122%	53.9%	112%
Cn1nnc2c(C(N)=O)ncn2c1=O [temozolomide] + OCCn1cc(-c2cnc3nnn(Cc4ccc5ncccc5c4)c3n2)cn1 [PF04217903] (first compound 2 µM, partner dose 1 µM)	94.7%	91.5%	94%	72.8%	79%	96.6%	88.4%	96.9%	115%	84.3%	95.2%	76.7%	83.3%	91.5%	82.8%	91.7%
O=C(O)c1ccc2c(c1)nc(Nc1cccc(Cl)c1)c1ccncc12 + COc1ccc(COc2ccc(Cc3cnc(N)nc3N)cc2OC)cc1 [GW2580] (first compound 0.4 µM, partner dose 1 µM)	90.3%	103%	98.5%	108%	112%	104%	98.6%	95%	102%	99.9%	92.2%	84.4%	92.7%	73.9%	122%	90%
O=C(O)[C@@H]1[O][Sb](=[O])([O][Sb]2(=[O])[O][C@H]([C@H](O)CO)[C@H](O)[C@H](C(=O)O)[O]2)[O][C@H]([C@H](O)CO)[C@@H]1O (stereo partly drawn) [stibogluconate] + Cc1cc([N+](=O)[O-])ccc1NS(=O)(=O)c1cc(Cl)ccc1Cl [FH535] (first compound 2 µM, partner dose 1 µM)	92.6%	102%	118%	111%	88.8%	100%	86.2%	81.3%	91.2%	97.8%	87.3%	94.6%	85.1%	114%	108%	102%
Cc1cc(N2CCOCC2)cc2[nH]c(-c3c(NC[C@@H](O)c4cccc(Cl)c4)cc[nH]c3=O)nc12 + CN(C)S(=O)(=O)c1ccc2c(c1)/C(=C/c1cc3c([nH]1)CCCC3)C(=O)N2 [SU6656] (first compound 0.2 µM, partner dose 0.4 µM)	98.8%	83%	108%	76.6%	83.2%	77.1%	83.1%	71.4%	58.1%	72.2%	68.1%	90.7%	62.6%	87.9%	79.7%	78.9%
Cn1nnc2c(C(N)=O)ncn2c1=O [temozolomide] + CC1(C)NC(=O)N(c2ccc([N+](=O)[O-])c(C(F)(F)F)c2)C1=O [nilutamide] (first compound 2 µM, partner dose 1 µM)	86.7%	97.9%	103%	84.2%	73.4%	101%	89.3%	91.4%	111%	60.7%	85.6%	80.6%	97.1%	94.3%	72.6%	98.6%
O=C(O)[C@@H]1[O][Sb](=[O])([O][Sb]2(=[O])[O][C@H]([C@H](O)CO)[C@H](O)[C@H](C(=O)O)[O]2)[O][C@H]([C@H](O)CO)[C@@H]1O (stereo partly drawn) [stibogluconate] + OCCn1cc(-c2cnc3nnn(Cc4ccc5ncccc5c4)c3n2)cn1 [PF04217903] (first compound 2 µM, partner dose 1 µM)	97.2%	100%	72.9%	88.8%	101%	87.3%	98.3%	106%	114%	87.6%	89.5%	96.4%	94.1%	105%	90.2%	95.2%
O=C(O)c1ccc2c(c1)nc(Nc1cccc(Cl)c1)c1ccncc12 + Oc1cc(-c2nc(-c3ccccc3)[nH]c2-c2ccncc2)ccc1Cl [L779450] (first compound 0.4 µM, partner dose 0.2 µM)	67.1%	90.1%	94.7%	89.3%	78.7%	92%	91.7%	102%	77.1%	68.6%	91.7%	104%	93.4%	61.6%	92.2%	115%
O=C(O)[C@@H]1[O][Sb](=[O])([O][Sb]2(=[O])[O][C@H]([C@H](O)CO)[C@H](O)[C@H](C(=O)O)[O]2)[O][C@H]([C@H](O)CO)[C@@H]1O (stereo partly drawn) [stibogluconate] + COc1ccc2c(c1)CCC1C2CCC2(C)C(NCCCCCCN3C(=O)C=CC3=O)CCC12 [U73122] (first compound 2 µM, partner dose 0.4 µM)	96.3%	101%	84.5%	113%	99.7%	103%	102%	128%	115%	126%	95.7%	93.5%	92.1%	105%	108%	108%
O=C(Nc1cc(C(F)(F)F)cc(C(F)(F)F)c1)c1cc(Cl)ccc1O + COc1cc2c(Oc3ccc4[nH]c(C)cc4c3F)ncnc2cc1OCCCN1CCCC1 [cediranib] (first compound 0.016 µM, partner dose 0.4 µM)	98.2%	91%	90.4%	89.3%	91.1%	97.5%	81%	97.8%	84.1%	92.3%	92.7%	102%	90.7%	80.1%	86.5%	74.2%
O=C(Nc1cc(C(F)(F)F)cc(C(F)(F)F)c1)c1cc(Cl)ccc1O + CCN(CC)CCCCNc1ncc2cc(-c3cc(OC)cc(OC)c3)c(NC(=O)NC(C)(C)C)nc2n1 [PD173074] (first compound 0.016 µM, partner dose 0.1 µM)	104%	108%	104%	111%	100%	104%	97.5%	109%	85.2%	100%	97.4%	109%	108%	111%	121%	96.6%
Cc1cc(N2CCOCC2)cc2[nH]c(-c3c(NC[C@@H](O)c4cccc(Cl)c4)cc[nH]c3=O)nc12 + O=C(Nc1cccc(Cl)c1)Nc1ncc(CCNc2ncnc3ccsc23)s1 [SNS314] (first compound 0.2 µM, partner dose 0.0008 µM)	107%	91.3%	93.6%	76.3%	88.6%	84.8%	92%	88.9%	74.4%	88.2%	64.5%	105%	66.9%	68.2%	102%	92%
O=C(O)c1ccc2c(c1)nc(Nc1cccc(Cl)c1)c1ccncc12 + COc1cc2ncnc(Nc3ccc(Oc4ccccc4)cc3)c2cc1OC [SrcI1] (first compound 0.4 µM, partner dose 2 µM)	82.8%	88.3%	115%	114%	107%	103%	86.7%	106%	107%	101%	95.7%	107%	89.5%	80.4%	100%	108%
Cc1cc(N2CCOCC2)cc2[nH]c(-c3c(NC[C@@H](O)c4cccc(Cl)c4)cc[nH]c3=O)nc12 + O=C(O)c1ccc(-c2c[nH]c3ncc(-c4ccccc4)cc23)cc1C1CCCC1 [GSK650394] (first compound 0.2 µM, partner dose 0.16 µM)	89.4%	84.5%	91.4%	92.8%	88.1%	82.3%	75.8%	89.4%	81.5%	82.3%	103%	103%	73.5%	87.3%	87.6%	111%
O=C(O)c1ccc2c(c1)nc(Nc1cccc(Cl)c1)c1ccncc12 + COc1cc(Nc2ncc(F)c(Nc3ccc4c(n3)NC(=O)C(C)(C)O4)n2)cc(OC)c1OC [Tamatinib] (first compound 0.4 µM, partner dose 0.4 µM)	86%	80.5%	87.6%	125%	79.2%	95.7%	81.7%	94.3%	63.1%	90.7%	94.2%	89.1%	70.1%	77.9%	80.5%	94.3%
